Assay results reported in PMC6919601, “Identification of Plasmodium dipeptidyl aminopeptidase allosteric inhibitors by high throughput screening” (PLoS ONE, 2019).
In all, about 110,000 compounds went through this assay and about 230 (0.21%) showed an effect of 50% or more. The list shows a part of the results.

biological target: DPAP1 (Plasmodium falciparum, UniProt Q8IIJ9); assay: primary screen, percent inhibition; read by cleavage of a fluorogenic dipeptide substrate; higher = more effect of the substance; set-up: species or system P. falciparum D10 trophozoite lysates; single well
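Also: 30 min substrate incubation versus DMSO and 10 µM JCP410 controls.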

DPAP1, sequence (Q8IIJ9 whole entry, looked up): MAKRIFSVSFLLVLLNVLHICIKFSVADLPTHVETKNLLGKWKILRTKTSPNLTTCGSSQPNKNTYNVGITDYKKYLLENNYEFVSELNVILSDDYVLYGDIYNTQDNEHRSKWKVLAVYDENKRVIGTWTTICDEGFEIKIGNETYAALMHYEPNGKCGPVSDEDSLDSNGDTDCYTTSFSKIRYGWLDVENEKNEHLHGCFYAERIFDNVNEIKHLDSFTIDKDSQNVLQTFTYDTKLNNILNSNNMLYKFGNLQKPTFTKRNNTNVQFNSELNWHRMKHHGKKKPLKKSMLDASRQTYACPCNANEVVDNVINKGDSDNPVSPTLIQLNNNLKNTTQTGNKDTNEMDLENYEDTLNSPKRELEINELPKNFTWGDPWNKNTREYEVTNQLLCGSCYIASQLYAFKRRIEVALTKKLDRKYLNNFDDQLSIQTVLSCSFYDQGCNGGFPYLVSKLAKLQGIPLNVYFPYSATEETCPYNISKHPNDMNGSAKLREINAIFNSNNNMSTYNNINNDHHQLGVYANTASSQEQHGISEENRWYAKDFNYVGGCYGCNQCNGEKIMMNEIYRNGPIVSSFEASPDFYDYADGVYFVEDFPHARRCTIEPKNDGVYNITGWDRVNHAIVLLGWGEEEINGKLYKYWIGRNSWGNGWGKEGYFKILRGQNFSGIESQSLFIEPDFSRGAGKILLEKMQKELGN

In order of falling “% Inhibition @ 10 uM” value:
1. O=C(NC1C2CC3CC(C2)CC1C3)c1cccc(Cl)c1 (stereo not drawn)  13.2%
2. O=C(O)c1ccc(NS(=O)(=O)c2cccc(S(=O)(=O)c3ccccc3)c2)cc1  11.9%
3. O=C1C(Sc2nc[nH]n2)=C/C(=N/S(=O)(=O)c2cccs2)c2ccccc21  10.8%
4. Cc1cc(C)nc(NC(=O)Nc2ccc3ccccc3c2)n1  7.03%
5. COc1cc(CN(C)C)c(O)c(CN(C)C)c1  6.89%
6. Cc1ccc(S(=O)(=O)c2nnn3c2nc(NCCCN2CCCC2=O)c2ccccc23)cc1  6.54%
7. c1ccc2cc3c(Nc4ccc(N5CCCCC5)cc4)ccnc3cc2c1  6.48%
8. Clc1ccc(-c2noc3ncnc(NCC4CCCO4)c23)cc1 (stereo not drawn)  5.77%
9. COc1ccc(C2C3=C(O)CC(C)(C)CC3=NC(C)=C2C(=O)N2CCCCC2)cc1Br (stereo not drawn)  5.66%
10. CC1CCN(C(=O)CN(C)S(=O)(=O)c2ccc(Cl)cc2)CC1  5.12%
11. CCCCSC1=C(C#N)C(=O)NC(c2ccc(O)c(OC)c2)S1 (stereo not drawn)  4.93%
12. CC1=C(c2c(C)sc(C)c2C(=O)O)C(C)CCC1 (stereo not drawn)  4.83%
13. N#Cc1ccc(Oc2ccccc2N2C(=O)C3C4C=CC(C4)C3C2=O)cc1 (stereo not drawn)  4.57%
14. CC(C)(C)N1C(=O)c2ccc(C(=O)Nc3ccc(C(=O)O)cc3)cc2C1=O  3.8%
15. COc1ccc(C(=O)Nc2nnc(S(=O)(=O)N(C)Cc3ccc(F)cc3)s2)cc1OC  3.74%
16. CC(C)(C)c1ccc(C(=O)NCc2cccs2)cc1  3.53%
17. Brc1ccc2nc3c(n2c1)CCCC3  3.31%
18. CCOC(=O)C1=C(C)NC(=O)NC1c1ccc(O)c(OC)c1 (stereo not drawn)  3.31%
19. COc1ccccc1C(=O)O/N=C1/C=C(C(C)C)C(=O)C=C1C  2.95%
20. COc1ccc(-n2nc3c(N4CCC(C(=O)NC5CCCCCC5)CC4)nnc(C)c3c2C)cc1  2.92%
21. CCOc1ccc(CCCN=C(N)N)cc1Cl  2.66%
22. COc1ccc(C(=O)Nc2ccc(F)cc2)c(OC)c1  2.65%
23. CCC(C(=O)Nc1nccs1)c1ccccc1 (stereo not drawn)  2.55%
24. c1ccc(CC2CCN(Cc3c[nH]c4ccccc34)CC2)cc1  2.33%
25. Cc1cc(C)c2c(-n3cccc3)c(C(=O)N3CCN(Cc4ccc5c(c4)OCO5)CC3)sc2n1  2.27%
26. COc1ccc(-c2cc3c(=O)n(CC(=O)NC(C)C45CC6CC(CC(C6)C4)C5)ncn3n2)cc1 (stereo not drawn)  2.27%
27. Cc1c(Cl)c(C(F)(F)F)nn1CC(=O)NC(C)C  2.16%
28. Cc1cc(S(=O)(=O)c2cc3cc(C(C)(C)C)cc(O)c3oc2=O)ccc1F  2.12%
29. CO/N=C/c1c(Sc2ccc(C)cc2)nc2ccccn2c1=O  2.09%
30. CCN(CC)CCCNCc1cccc(Br)c1  2.05%
31. CC(C)(C)c1ccc(/C=C2\NC(=S)NC2=O)cc1  2.05%
32. O=C(CCc1ccccc1)Nc1cccc(NC(=O)CCc2ccccc2)n1  2.03%
33. CCc1nc2ccccc2c(=O)n1Cc1ccccc1  1.96%
34. COc1ccc(C)cc1N(CC(=O)NC1CC2CCC1C2)S(=O)(=O)c1ccc(C)cc1 (stereo not drawn)  1.62%
35. O=C(NCCCc1ccccc1)[C@H](CS(=O)(=O)Cc1ccccc1OC(F)F)NC(=O)N1CCOCC1  1.61%
36. CCOc1ccccc1NC(=O)c1ccccc1Br  1.35%
37. Cc1ccccc1CCNCc1c(C(=O)O)c(C)n(Cc2ccccc2F)c1C  1.21%
38. COc1ccc(C2C=C(c3cccs3)Nc3nc(-c4ccccc4)cn32)cc1 (stereo not drawn)  1.02%
39. C=CCOc1ccccc1/C=c1/sc2nc(=O)c(Cc3ccc(F)cc3)nn2c1=O  1.02%
40. CN1CCN(Cc2nnc(S)n2-c2cccc(F)c2)CC1  0.986%
41. Cc1onc(-c2ccccc2)c1C(=O)O  0.878%
42. O=C(NCCC1=CCCCC1)c1cc(-c2ccccc2)c(N2CCOCC2)s1  0.708%
43. CC(=O)c1nn(-c2ccc(OC(F)(F)F)cc2)nc1N1CCn2cnnc2C1  0.635%
44. Cc1ccccc1Cn1nnc2sc3c(c2c1=O)CCC(C)C3 (stereo not drawn)  0.561%
45. Cc1ccccc1C1C(C#N)=C(N)Oc2n[nH]c(C(C)C)c21 (stereo not drawn)  0.343%
46. C=CCSC1=C(C#N)C(c2ccc(C)cc2)CC(=O)N1 (stereo not drawn)  0.317%
47. Cc1cccc(Oc2nc3ccccn3c(=O)c2/C=C(\C#N)C(=O)N2CCOCC2)c1C  0.315%
48. Cc1cc(C)n(-c2nc(-c3ccccc3)cc(-c3ccc(F)cc3)n2)n1  0.215%
49. NC(=O)C1CCCN(CCc2ccccc2)C1 (stereo not drawn)  -0.0494%
50. CCc1ccccc1NC(=O)CN(c1c(C)cccc1C)S(C)(=O)=O  -0.297%
51. CN(C)S(=O)(=O)c1ccc(C(=O)NCCn2ccc3ccccc32)cc1  -0.396%
52. CCC(Sc1nc2nnc(C)c-2c(N)n1-c1ccccc1C)C(=O)N1CCCC1 (stereo not drawn)  -0.458%
53. CCOC(=O)c1sc2nc(CSc3nc(C)cc(O)n3)cc(=O)n2c1C  -0.495%
54. CC(=O)N1C(=O)C2(Nc3ccccc3N2)c2ccccc21  -0.637%
55. CC(C)NC(=O)Cn1ncc2c3ccccc3nc-2c1O  -0.723%
56. COc1ccccc1Cc1nn[nH]n1  -0.902%
57. Cc1cc(OCc2noc(-c3ccc(F)cc3)n2)cc(C)c1Cl  -0.946%
58. COc1ccc(CN(C(=O)c2cccc(C)c2)C2CCS(=O)(=O)C2)cc1 (stereo not drawn)  -1.18%
59. Cc1ccc(/C=C/C(=O)N(Cc2ccccc2F)C2CCS(=O)(=O)C2)cc1 (stereo not drawn)  -1.35%
60. CCC[C@H](NC(=O)C1(NC(=O)c2ccc(OC(F)(F)F)cc2)CCCCC1)C(=O)c1nnc(-c2ccc(C(F)(F)F)cc2)o1  -1.41%
61. O=S(=O)(c1ccccc1F)N1CCN(Cc2ccccc2)CC1  -1.61%
62. O=C(Nc1ccccc1)c1cccc(S(=O)(=O)NCc2ccccc2)c1  -1.77%
63. Cc1ccsc1CCNC(=O)CCc1nnc2n(CCc3ccccc3)c(=O)c3ccccc3n12  -1.8%
64. COc1ccc(NC(=O)NC(C)c2ccccc2)cc1 (stereo not drawn)  -2.03%
65. Cc1ccccc1OCCn1c(SC(C)C(=O)O)nc2c(N)ncnc21 (stereo not drawn)  -2.21%
66. CC1CCCN(C(=O)c2ccc(Cl)cc2Cl)C1 (stereo not drawn)  -2.6%
67. CCCCNS(=O)(=O)c1cc(-c2nnc(O)c3ccccc23)ccc1C  -2.65%
68. O=C1CSC(c2ccccc2)N1c1nnc(C23CC4CC(CC(C4)C2)C3)s1 (stereo not drawn)  -2.65%
69. CCOC(=O)c1cnc(-c2ccccc2)nc1O  -2.83%
70. O=C(NC1CCCCC1)c1cccc2c1C(=O)N(CC1CCCO1)C2 (stereo not drawn)  -2.83%
71. O=C1Cc2ccccc2C(c2ccc(Cl)cc2Cl)N1 (stereo not drawn)  -3.14%
72. CCCCNS(=O)(=O)c1ccc2nc(-c3cccnc3)cc(C(=O)NCCCOC)c2c1  -3.21%
73. COc1ccc(-c2nc(C#N)c(NCc3ccco3)o2)cc1  -3.23%
74. CCOC(=O)N1CCC(N2CCc3ccccc3C2)CC1  -3.27%
75. CCc1nnc(NC(=O)C2(C)COC(c3ccccc3)OC2)s1 (stereo not drawn)  -3.34%
76. Cc1ccc(CNC(=O)Cn2nnc(C(=O)NCc3ccc(F)cc3)c2N)cc1  -3.35%
77. COc1ccc(C(=O)Nc2cccc(NC(C)=O)c2)cc1  -3.39%
78. Cc1ccc(C)c(NC(=O)CN(c2ccc(F)cc2)S(C)(=O)=O)c1  -3.39%
79. CC(=O)Nc1nonc1N1C(=N)S/C(=C/c2ccc(-c3cccc(C(F)(F)F)c3)o2)C1=O  -3.41%
80. O=C(CCc1ccc(S(=O)(=O)NCc2ccccc2)cc1)Nc1ccc2c(c1)OCCO2  -3.43%
81. CCCn1c2ccccc2c2cnn(CC(=O)NC(C)c3ccccc3)c(=O)c21 (stereo not drawn)  -3.47%
82. CCOC(=O)Nc1ccc(-c2cccc(CC(CS(=O)(=O)Cc3ccccc3OC(F)F)C(=O)NCC#N)c2)cc1 (stereo not drawn)  -3.49%
83. CC(C)(C)NC(=O)Cn1cc(S(=O)(=O)Cc2cccc(Cl)c2)c2ccccc21  -3.5%
84. C=CCC1(O)c2ccccc2C(=O)c2c(O)ccc(O)c21 (stereo not drawn)  -3.57%
85. CCCCS(=O)c1c(O)nc2ccccc2c1O (stereo not drawn)  -3.77%
86. Cn1cc(CN2CCc3ccccc3C2)c2ccccc21  -3.78%
87. COCCCNC(=O)CCn1c(=O)c2cccn2c2cccnc21  -4.21%
88. CN(C)C(CNS(=O)(=O)c1ccc(Cl)cc1)c1ccccc1 (stereo not drawn)  -4.29%
89. CCc1ccccc1N(CC(=O)Nc1ccc2c(c1)OCO2)S(=O)(=O)c1ccc(C)cc1  -4.31%
90. O=C(Cn1cnc2sc3c(c2c1=O)CCCC3)Nc1ccc(Br)cc1  -4.39%
91. COc1ccc(C2=NOC(=O)C2)cc1  -4.59%
92. CC(=O)Nc1ccc(S(=O)(=O)Nc2ccc(Cl)c(Cl)c2)cc1  -4.61%
93. CC(C)COc1ccc(C(=O)Nc2sc3c(c2C(=O)O)CC(C)(C)OC3)cc1  -4.72%
94. Cc1ccc(-c2nnc3n2C(C)(C)Cc2ccccc2-3)cc1  -4.98%
95. CC1CC(C)CN(S(=O)(=O)c2ccc3ncc(C(=O)NCCC4=CCCCC4)c(O)c3c2)C1 (stereo not drawn)  -5.03%
96. CCOC(=O)N1CCC(NCc2c(C(=O)O)c(C)n(Cc3ccc(F)cc3)c2C)CC1  -5.72%
97. COC(=O)C1C(c2ccccc2)=NN(c2ccccc2)C1C(=O)OC (stereo not drawn)  -6.52%
98. COc1cc2c(cc1OC)CN(C(=O)CSc1nnc3scc(-c4ccccc4)n13)CC2  -6.55%
99. N#CCNC(=O)C(CS(=O)(=O)Cc1ccccc1)c1cccc(-c2ccccc2)c1 (stereo not drawn)  -6.98%
